According to publication PMC5496739:
Numbering of substitutions follows the chain as printed. No constants are given. Whether binding was seen depends on the method and setting. In cells and extracts the contact can be indirect. Some results given as binding are weak or reduced against the parent protein; the word gives no strength. For some assays here: Tags and fused reporters may be left off the sequences shown. Values belong to the molecule of their own block, whether it stands above or below them.

Protein sequences, listed by entry. Tags and fused reporters are not part of them.
UniProt Q62825: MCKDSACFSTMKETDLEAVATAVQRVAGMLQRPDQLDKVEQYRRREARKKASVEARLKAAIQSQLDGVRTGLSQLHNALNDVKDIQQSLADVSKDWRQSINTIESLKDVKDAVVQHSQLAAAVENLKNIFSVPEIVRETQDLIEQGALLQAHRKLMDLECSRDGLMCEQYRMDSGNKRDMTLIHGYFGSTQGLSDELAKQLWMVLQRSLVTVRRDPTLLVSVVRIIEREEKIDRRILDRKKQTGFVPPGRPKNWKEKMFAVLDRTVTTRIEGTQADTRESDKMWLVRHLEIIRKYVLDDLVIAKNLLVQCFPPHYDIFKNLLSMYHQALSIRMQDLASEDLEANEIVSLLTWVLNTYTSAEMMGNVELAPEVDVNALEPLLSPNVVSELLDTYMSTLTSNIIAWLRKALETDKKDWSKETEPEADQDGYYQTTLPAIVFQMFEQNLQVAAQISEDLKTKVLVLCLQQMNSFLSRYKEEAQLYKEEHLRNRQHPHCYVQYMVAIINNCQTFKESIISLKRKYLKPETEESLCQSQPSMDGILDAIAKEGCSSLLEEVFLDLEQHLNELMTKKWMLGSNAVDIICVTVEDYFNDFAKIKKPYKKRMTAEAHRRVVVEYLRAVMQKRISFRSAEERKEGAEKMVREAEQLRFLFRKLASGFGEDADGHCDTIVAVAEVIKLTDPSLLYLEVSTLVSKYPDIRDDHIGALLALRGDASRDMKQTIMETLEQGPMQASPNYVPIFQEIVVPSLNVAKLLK
UniProt P60881: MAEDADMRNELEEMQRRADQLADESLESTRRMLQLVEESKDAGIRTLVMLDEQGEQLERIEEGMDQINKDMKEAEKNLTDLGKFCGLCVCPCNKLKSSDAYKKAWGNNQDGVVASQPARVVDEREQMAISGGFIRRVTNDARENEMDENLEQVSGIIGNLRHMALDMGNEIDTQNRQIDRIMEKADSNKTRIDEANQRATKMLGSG
UniProt Q9QYF3: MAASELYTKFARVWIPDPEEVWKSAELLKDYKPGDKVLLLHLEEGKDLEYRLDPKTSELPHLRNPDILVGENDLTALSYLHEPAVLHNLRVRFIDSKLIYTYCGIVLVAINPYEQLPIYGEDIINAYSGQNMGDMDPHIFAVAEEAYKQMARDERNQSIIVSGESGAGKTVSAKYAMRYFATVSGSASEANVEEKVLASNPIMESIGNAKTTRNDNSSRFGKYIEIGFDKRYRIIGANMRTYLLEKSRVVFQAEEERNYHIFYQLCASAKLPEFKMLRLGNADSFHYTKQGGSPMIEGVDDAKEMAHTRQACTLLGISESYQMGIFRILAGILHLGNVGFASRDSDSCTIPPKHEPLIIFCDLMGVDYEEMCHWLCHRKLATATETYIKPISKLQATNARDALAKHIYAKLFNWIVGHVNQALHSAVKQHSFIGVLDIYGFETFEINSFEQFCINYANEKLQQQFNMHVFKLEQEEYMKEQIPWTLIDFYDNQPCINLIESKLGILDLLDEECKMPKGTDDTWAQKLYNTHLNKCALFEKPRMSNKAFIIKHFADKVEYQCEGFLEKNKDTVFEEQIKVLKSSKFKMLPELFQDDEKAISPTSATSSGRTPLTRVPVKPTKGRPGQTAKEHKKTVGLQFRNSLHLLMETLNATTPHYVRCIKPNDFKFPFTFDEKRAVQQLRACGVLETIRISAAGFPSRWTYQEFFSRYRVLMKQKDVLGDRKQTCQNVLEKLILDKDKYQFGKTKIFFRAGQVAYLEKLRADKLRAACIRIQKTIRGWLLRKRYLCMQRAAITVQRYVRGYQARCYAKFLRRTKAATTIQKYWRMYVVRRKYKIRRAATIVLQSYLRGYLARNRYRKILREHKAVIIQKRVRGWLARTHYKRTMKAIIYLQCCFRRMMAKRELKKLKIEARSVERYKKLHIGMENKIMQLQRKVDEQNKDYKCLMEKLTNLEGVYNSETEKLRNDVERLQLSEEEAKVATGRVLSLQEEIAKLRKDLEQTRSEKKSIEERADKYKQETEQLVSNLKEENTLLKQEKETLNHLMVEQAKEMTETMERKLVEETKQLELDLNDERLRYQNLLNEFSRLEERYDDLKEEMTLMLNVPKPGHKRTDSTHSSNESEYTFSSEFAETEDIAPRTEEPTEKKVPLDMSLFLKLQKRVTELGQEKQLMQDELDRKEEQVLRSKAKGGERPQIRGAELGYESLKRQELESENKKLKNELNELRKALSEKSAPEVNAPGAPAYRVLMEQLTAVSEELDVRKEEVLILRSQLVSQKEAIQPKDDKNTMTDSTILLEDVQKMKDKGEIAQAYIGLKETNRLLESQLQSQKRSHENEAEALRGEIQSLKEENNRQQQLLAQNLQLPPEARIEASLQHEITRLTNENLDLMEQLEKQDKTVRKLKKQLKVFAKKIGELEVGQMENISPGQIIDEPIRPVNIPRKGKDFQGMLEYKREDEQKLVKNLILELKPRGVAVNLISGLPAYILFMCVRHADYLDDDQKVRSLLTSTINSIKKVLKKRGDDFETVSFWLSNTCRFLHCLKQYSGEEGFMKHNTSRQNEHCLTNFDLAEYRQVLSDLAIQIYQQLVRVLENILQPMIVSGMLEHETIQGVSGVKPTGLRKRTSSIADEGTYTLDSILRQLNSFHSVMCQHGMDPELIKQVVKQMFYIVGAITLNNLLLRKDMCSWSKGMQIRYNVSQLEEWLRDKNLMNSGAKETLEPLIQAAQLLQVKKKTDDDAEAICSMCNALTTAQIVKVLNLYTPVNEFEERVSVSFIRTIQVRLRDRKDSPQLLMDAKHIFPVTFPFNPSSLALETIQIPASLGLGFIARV

What was measured:
[1] = molecular target: T1, MEF-exophilin-8 PA (ABD) mutant (mouse) (UniProt Q8K3I4); test: co-IP; INS-1 832/13 cells infected with adenoviruses expressing HA-RIM-BP2 and GFP, MEF-exophilin-8 (WT or PA (ABD)) or MEF-exophilin-3; anti-FLAG immunoprecipitates blotted for endogenous proteins
T1 sequence: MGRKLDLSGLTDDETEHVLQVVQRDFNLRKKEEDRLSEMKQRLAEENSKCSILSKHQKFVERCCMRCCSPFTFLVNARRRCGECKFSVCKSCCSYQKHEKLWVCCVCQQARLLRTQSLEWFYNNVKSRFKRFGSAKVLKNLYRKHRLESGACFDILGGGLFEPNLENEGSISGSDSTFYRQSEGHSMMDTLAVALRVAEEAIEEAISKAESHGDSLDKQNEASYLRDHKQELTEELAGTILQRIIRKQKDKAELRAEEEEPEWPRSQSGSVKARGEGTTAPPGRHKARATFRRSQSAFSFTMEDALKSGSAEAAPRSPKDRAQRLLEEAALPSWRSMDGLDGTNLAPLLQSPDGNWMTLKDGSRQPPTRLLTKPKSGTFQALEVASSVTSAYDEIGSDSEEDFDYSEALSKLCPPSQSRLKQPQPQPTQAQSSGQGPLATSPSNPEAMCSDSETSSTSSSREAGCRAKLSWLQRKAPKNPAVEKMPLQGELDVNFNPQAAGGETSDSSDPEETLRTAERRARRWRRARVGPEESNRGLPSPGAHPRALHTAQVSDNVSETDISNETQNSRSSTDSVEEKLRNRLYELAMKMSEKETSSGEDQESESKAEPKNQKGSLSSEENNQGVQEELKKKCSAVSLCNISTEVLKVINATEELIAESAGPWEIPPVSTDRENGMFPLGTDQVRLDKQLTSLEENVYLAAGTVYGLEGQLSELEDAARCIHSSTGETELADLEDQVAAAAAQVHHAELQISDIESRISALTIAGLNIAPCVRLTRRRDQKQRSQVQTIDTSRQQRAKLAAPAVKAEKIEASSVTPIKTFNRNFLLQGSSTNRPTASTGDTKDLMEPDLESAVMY

[2] = molecular target: T2, MEF-exophilin-8 (wild type) (mouse) (UniProt Q8K3I4); test: as above
T2 sequence: T1 sequence with A798R, A801P, A804P

MEF-exophilin-3 = molecular target: T3, MEF-exophilin-3 (UniProt Q91V27); test: as above
T3 sequence: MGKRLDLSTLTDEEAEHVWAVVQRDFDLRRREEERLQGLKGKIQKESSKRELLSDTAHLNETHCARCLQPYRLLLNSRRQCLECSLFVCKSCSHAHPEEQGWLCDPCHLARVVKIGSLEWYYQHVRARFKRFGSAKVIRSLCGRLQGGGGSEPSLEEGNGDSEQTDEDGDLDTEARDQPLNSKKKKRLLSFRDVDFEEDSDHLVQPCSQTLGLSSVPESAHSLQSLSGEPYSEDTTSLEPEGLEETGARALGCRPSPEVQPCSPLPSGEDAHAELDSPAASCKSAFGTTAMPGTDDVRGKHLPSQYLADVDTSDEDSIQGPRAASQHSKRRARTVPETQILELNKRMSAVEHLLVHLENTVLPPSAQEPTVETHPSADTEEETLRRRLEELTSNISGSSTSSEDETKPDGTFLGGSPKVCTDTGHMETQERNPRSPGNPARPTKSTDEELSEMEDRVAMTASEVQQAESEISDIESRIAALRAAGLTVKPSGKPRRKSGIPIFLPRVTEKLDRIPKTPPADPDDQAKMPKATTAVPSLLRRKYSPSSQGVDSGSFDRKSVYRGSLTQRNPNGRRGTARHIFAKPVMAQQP

[3] = molecular target: T4, exophilin-8, endogenous in INS-1 832/13 cells (rat (endogenous in INS-1 832/13)) (UniProt Q7TNY7); test: co-IP; INS-1 832/13 cells, endogenous proteins; immunoprecipitates with anti-exophilin-8 antibody or control IgG blotted with anti-RIM-BP2
T4 sequence: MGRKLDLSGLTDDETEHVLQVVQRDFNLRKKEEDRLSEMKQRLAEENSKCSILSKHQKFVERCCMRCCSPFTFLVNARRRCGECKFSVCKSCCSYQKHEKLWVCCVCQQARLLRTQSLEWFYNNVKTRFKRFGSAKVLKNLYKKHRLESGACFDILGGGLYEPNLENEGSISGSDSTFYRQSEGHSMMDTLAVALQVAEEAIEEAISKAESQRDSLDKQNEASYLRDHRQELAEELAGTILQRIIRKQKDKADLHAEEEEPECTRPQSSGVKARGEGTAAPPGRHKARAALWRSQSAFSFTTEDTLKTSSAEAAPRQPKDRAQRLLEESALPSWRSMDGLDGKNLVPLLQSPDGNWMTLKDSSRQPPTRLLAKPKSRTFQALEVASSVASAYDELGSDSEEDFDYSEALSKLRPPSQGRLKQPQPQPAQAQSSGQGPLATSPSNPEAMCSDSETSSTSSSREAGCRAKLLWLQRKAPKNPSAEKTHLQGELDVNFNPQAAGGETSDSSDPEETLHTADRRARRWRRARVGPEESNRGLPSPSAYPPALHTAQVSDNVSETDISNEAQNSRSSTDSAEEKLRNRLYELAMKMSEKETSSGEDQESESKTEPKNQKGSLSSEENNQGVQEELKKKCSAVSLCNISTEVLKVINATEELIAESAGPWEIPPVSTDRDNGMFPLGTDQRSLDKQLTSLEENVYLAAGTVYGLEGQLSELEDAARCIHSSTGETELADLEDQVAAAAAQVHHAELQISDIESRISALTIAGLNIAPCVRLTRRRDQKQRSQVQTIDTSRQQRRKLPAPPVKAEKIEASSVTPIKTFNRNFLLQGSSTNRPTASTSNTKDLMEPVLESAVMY

binding [1]: binds
binding [2]: binds
Molecule: Sec6, endogenous in INS-1 832/13 cells (from UniProt Q62825 1-755)

binding [1]: no binding
Molecule: Munc13-1, endogenous in INS-1 832/13 cells (from UniProt Q62768 1-1735)

binding [1]: no binding
Molecule: Cav1.3, endogenous in INS-1 832/13 cells (from UniProt P27732 1-2203)

binding [1]: no binding
binding [2]: no binding
Molecule: SNAP25, endogenous in INS-1 832/13 cells (from UniProt P60881 1-206)

binding [1]: no binding
binding [2]: no binding
binding (MEF-exophilin-3): binds
Molecule: myosin-Va, endogenous in INS-1 832/13 cells (from UniProt Q9QYF3 1-1828)

binding [3]: binds
B1: RIM-BP2, endogenous in INS-1 832/13 cells (protein, UniProt Q9JIR1 1-1049)
chain: MREAAERRQQLELEHEQALAILNAKQQEIQLLQQSKVRELEEKCRVQSEQFNLLSRDLEKFRQHAGSIDLLGSNSVALLDVPLAPGKPFSQYMNGLATSIHKGHEGPTGHYSVIGDYIPLSGDKLESPCVKPSFLLRSSSPRCRFESEMDDDRSSNKSKHSSSGKVHLCVARYSYNPFDGPNENPEAELPLTAGKYLYVYGDMDEDGFYEGELLDGQRGLVPSNFVDFIQDNESRFAGTLGSEQDQNFLNHSGISLERDSILHLHSPTQVDSGITDNGGGTLDVNIDDIGEDIVPYPRKITLIKQLAKSVIVGWEPPAVPPGWGTVSSYNVLVDKETRMSLALGRRTKALIEKLNTAACTYRISVQCVTSRGNSDELQCTLLVGKDVVVAPSQLRVDNITQISAQLSWLPTNSNYSHIIFLNEEELDIVKAARYKYQFFNLRPNMAYKVKVLAQPHQMPWQLPLEQREKDEACVEFSTLPAGPPAPPQDVTVQAGATTASVQVSWKPPALTPTGLSNGANVTGYGVYAKGQRVAEVIAPTANGAAVELVRLRSLEAKAVSVRTLSAQGESMDSALAAIPPDLLVPPAPHPRTAPPPKPLTSDMDTKDLGPHVKVDESWEQSRPPGPAHGHMLEPPDMHSTGPGRRSPSPSRILPQPQGAPVSTTVAKAMAREAAQRVAETSKLEKRSLFLEQSSAGPYANSDEEDGYASPEVKRRGTSVDDFLKGSELGQQPHCCHGDEYHTESSRGSDLSDIMEEDEEELYSEMQLEDGGRRRPSGTSHNALKILGNSALMGRGDRMEHVSRRYSHSGGGPQRHRPMAPSIDEYTGRDHLSPDFYDESETDPGAEELPARIFVALFDYDPLTMSPNPDAAEEELPFKEGQIIKVYGDKDADGFYRGETCARLGLIPCNMVSEIHADDEEMMDQLLRQGFLPLNTPVEKIERSRRSGRGHSVPTRRMVALYDYDPRESSPNVDVEAELLFCTGDIITVFGEIDEDGFYYGELNGQKGLVPSNFLEEVPDDVEVHLSDAPPHYSHDPPMRTKAKRVSQPP

B2: HA-RIM-BP2 (protein, UniProt Q80U40 1-1072)
chain: MREAAERRQQLELEHEQALAFLNAKQQEIQLLQQAQVEAKKEHEGAVQLLESKVRELEEKCRVQSEQFNLLSRDLEKFRQHTGSIDLLGSSSVALLDVPLAPGKPFPQYMNGLATSIHKGHEGPTGHYSVIGDYIPLSGDKLESPCVKPSFLLRSSSPRCRFESEMDNDRNSNNSKQSSSGKVHLCVARYSYNPFDGPNENPEAELPLTAGKYLYVYGDMDEDGFYEGELLDGQRGLVPSNFVDFIQDNESRLAGTLGSEQDQNFLNHSGISLERDSILHLHSPTQVDSGITDNGGGTLDVNIDDIGEDTVPYPRKITLIKQLAKSVIVGWEPPAVPPGWGTVSSYNVLVDKETRMSLALGRRTKALIEKLNTAACTYRISVQCVTSRGNSDELQCTLLVGKDVVVAPSQLRVDNITQISAQLSWLPTNSNYSHIIFLNEEELDIVKAARYKYQFFNLRPNMAYKVKVLAQPHQMPWQLPLEQREKKEACVEFSTLPAGPPAPPQDVTVHAGATAASVQVSWKPPALTPTGLSNGANVTGYGVYAKGQRVAEVIAPTADGTAVELIRLRSLEAKAVSVRTLSVQGESMDSALAAIPPDLLVPPAPHPRTAPPPKPLASDMDTKDQHLGPHVKVDESWEQSRSPGPAHGHMLEPPDMHSAGPGRRSPSPSRILPQPQGAPVSTTVAKAMAREAAQRVAESNRLEKRSLFLEQSSAGQYTNSDEEDGYASPEVKRRGTSVDDFLKGSELGKQPHCCHGDEYHTESSRGSDLSDIMEEDEEELYSEMQLEDGGRRRPSGTSHNALKILGNSTLMGRADRMEHVSRRYSHSGGGSHRHRPAMAPSIDEYTGRDHLSPDFYDESETDPGAEELPARIFVALFDYDPLTMSPNPDAAEEELPFKEGQIIKVYGDKDADGFYRGETCARLGLIPCNMVSEIHADDEEMMDQLLRQGFLPLNTPVEKIERSRRSGRGHSVPTRRMVALYDYDPRESSPNVDVEAELPFCTGDIITVFGEIDEDGFYYGELNGQKGLVPSNFLEEVPDDVEVHLSDAPPHYSHDPPMRSKAKRKKSVHFTP
binding [1]: no binding
binding [2]: binds

binding [1]: binds
binding [2]: binds
B3: Rab27a, endogenous in INS-1 832/13 cells (protein, UniProt P23640 1-221)
chain: MSDGDYDYLIKFLALGDSGVGKTSVLYQYTDGKFNSKFITTVGIDFREKRVVYRANGPDGTVGRGQRIHLQLWDTAGQERFRSLTTAFFRDAMGFLLLFDLTNEQSFLNVRNWISQLQMHAYCENPDIVLCGNKSDLEDQRAVKEEEARELAEKYGIPYFETSAANGTNISQAIEMLLDLIMKRMERCVDKSWIPEGVVRSNGHTSTDQLSEEKEKGLCGC
